Results from PubChem BioAssay AID463173 (ICCB-Longwood Screening Facility, Harvard Medical School, 2010).
The whole screen tested about 52,000 compounds, of which about 1,700 (3.3%) were called active. Rule as the data show it: active = survival mostly below about 52% (no sharp cut-off); inactive = mostly above about 56%. The list shows a part of the results.

What follows are compounds tested on Wild type (assay: S. aureus survival, RN4220 and DeltatarO strains – OD600, teichoic acid synthesis inhibitors, primary screen (AID 463173)). Settings: S. aureus RN4220 wild type/DeltatarO growth, OD600, 18 h, hits give low values, screened at 18.75 µg/mL (by protocol).

| SMILES | survival |
| --- | --- |
| CCN(CC)CCSc1nnc2c3cc(F)ccc3n(C)c2n1 | inactive: 139% |
| COC(=O)c1ccc(OC)c(CN2C(=O)N(c3ccc(C(C)=O)cc3)S(=O)(=O)c3ccccc32)c1 | inactive: 100% |
| CCOC(=O)c1c(C)[nH]c(CCC(=O)Nc2ccc(Cl)cc2C)c1C | inactive: 72% |
| Cc1ccc(CNCc2c(C(=O)O)n(Cc3ccc(C)cc3)c3cc(C)ccc23)cc1 | inactive: 16% |
| Cc1ccc(-c2noc(CN(C(=O)COc3cc(C)cc(C)c3C)C(C)C)n2)cc1 | active: 1% |
| Brc1ccc(-c2cc(-c3ccccc3)no2)cc1 | inactive: 112% |
| COc1ccc(-c2noc(CNS(=O)(=O)c3ccc(Br)cc3)n2)cc1OC | inactive: 93% |
| Cc1ccc(C)c(CN2C(=O)c3ccccc3S(=O)(=O)c3ccc(C(=O)NCc4ccccc4)cc32)c1 | inactive: 108% |
| CCn1cc2nc(SCc3cc(C)ccc3C)n(Cc3ccc(OC)cc3)c(=O)c2n1 | inactive: 83% |
| Cc1cccc(OCCSc2nc3ccc(NC(=O)COc4ccccc4)cc3s2)c1 | inactive: 99% |
| CCCN1CCc2nc(N3CCN(c4ncccn4)CC3)ncc2C1 | inactive: 83% |
| Cc1cccc(OCCCn2c(CCNC(=O)C(C)(C)C)nc3ccccc32)c1 | inactive: 84% |
| COc1ccc(S(=O)(=O)Nc2cc3c(cc2NCc2ccccc2)n(C)c(=O)n3C)cc1 | inactive: 79% |
| CCOc1ccc(C(=O)Nc2ccc3oc(-c4cccnc4)nc3c2)cc1 | inactive: 89% |
| Cc1ccc2c(=O)c(C(=O)c3ccc(F)cc3)cn(CC(=O)NCCc3ccccc3)c2n1 | inactive: 136% |
| CCOCCCNC(=O)C(=O)Nc1c2c(nn1-c1ccc(OC)cc1)CSC2 | inactive: 70% |
| COc1ccc(CN(Cc2ccco2)c2cnc(S(C)(=O)=O)nc2C(=O)Nc2ccc(C)cc2C)cc1 | inactive: 89% |
| Cc1c(C(=O)NCc2ccccc2Cl)sc2nc[nH]c(=O)c12 | inactive: 82% |
| O=C(CN1CCCN(Cc2ccc(F)cc2)S1(=O)=O)NCc1ccccc1Cl | inactive: 78% |

| SMILES | survival |
| --- | --- |
| CN1CCN(CCCNC(=O)c2ccc3nc(Cc4ccccc4)oc3c2)CC1 | inactive: 81% |
| Cc1ccc(-n2nc3c(=O)n(CCCC(=O)NCc4ccccc4F)nc(C)c3c2C)cc1 | inactive: 60% |
| Cc1csc2nc(COC(=O)CNC(=O)c3ccccc3Cl)cc(=O)n12 | inactive: 74% |
| COC(=O)CCCCC1SCC(NC(=O)c2ccccc2)C1OC(C)=O (configuration not stated) | inactive: 92% |
| O=C(Nc1c(C(=O)N2CCN(c3ccccc3F)CC2)oc2ccccc12)c1ccccc1F | inactive: 59% |
| O=C(CSc1nc2ccncc2[nH]1)Nc1ccccc1C(F)(F)F | inactive: 81% |
| Cc1nc(-c2ccc(S(=O)(=O)N3CCN(c4ccc(F)cc4)CC3)cc2)co1 | inactive: 72% |
| CCC12CN3CC(CC)(CN(C1)C3c1cc(Br)ccc1OC)C2=O (configuration not stated) | inactive: 89% |
| CCn1cc(C(=O)NCc2ccc(C)cc2)c(=O)c2cc(S(=O)(=O)N3CCc4ccccc4C3)ccc21 | inactive: 74% |
| CCC(=O)N1CCc2cc(Br)cc(S(=O)(=O)CCC(=O)NCc3ccc(F)cc3)c21 | inactive: 82% |
| CC(=O)N1CCOc2cc(S(=O)(=O)N(C)Cc3ccccc3)c(Cl)cc21 | inactive: 92% |
| CCc1ccc(N(C)S(=O)(=O)c2ccc3[nH]cc(C(=O)NCC4CCCO4)c(=O)c3c2)cc1 (configuration not stated) | inactive: 74% |
| N#Cc1ccccc1NC(=O)c1cnc(N2CCOCC2)c2ccccc12 | inactive: 72% |
| COc1cccc2c1Oc1ncccc1N(C(=O)CCC(=O)NCc1ccc(C)cc1)C2 | inactive: 88% |
| COc1ccccc1-c1nnc(C2CCN(C(=O)c3ccc(Cl)cc3)CC2)o1 | inactive: 90% |
| Cc1ccc(Cn2c(CNC(=O)c3cccc(C)c3)nc3ccccc32)cc1 | inactive: 107% |
| CCOc1ccccc1NC(=O)Cn1c2ncccc2c(=O)n1-c1ccc(C)c(C)c1 | inactive: 58% |
| CCc1ccc2nc(N3CCN(C(=O)C4CC4)CC3)sc2c1 | inactive: 71% |
| Cn1nnnc1SCCCNCc1cccc(OCc2ccccc2Cl)c1 | inactive: 90% |

| SMILES | survival |
| --- | --- |
| COc1ccc(C)cc1NC(=O)CSc1nc(=O)n(Cc2ccccn2)c2c1CCC2 | inactive: 140% |
| Cc1oc(-c2ccc(C(=O)Nc3ccccc3F)cc2)nc1COc1ccccc1 | inactive: 78% |
| CCN1C(=O)C(Cc2nc3ccccc3c(=O)n2-c2ccccc2)c2cc(Br)ccc21 (configuration not stated) | inactive: 73% |
| COc1ccc(C2C(=O)N(C3CCC(C)CC3)CC(=O)N2CCC2=CCCCC2)cc1OC (configuration not stated) | active: -3% |
| CCOc1ccc(NC(=O)CN2C(=O)C3(SCC(=O)N3c3ccc(F)cc3)c3ccccc32)cc1 (configuration not stated) | inactive: 72% |
| CC(=O)N1CCCc2cc(S(=O)(=O)Nc3ccc(C)c(F)c3)ccc21 | inactive: 84% |
| Cc1oc2c(c(C)cc3oc(=O)c(CC(=O)NCc4ccc(F)cc4)c(C)c32)c1C | inactive: 85% |
| COc1ccc(CNc2oc(-c3ccc(COc4ccc(OC)cc4)o3)nc2C#N)cc1 | inactive: 129% |
| O=C(N/N=C/c1ccccc1)C(O)c1ccccc1 (configuration not stated) | inactive: 119% |
| Cc1cc(NC(=O)C2C3C(=O)N(CCC(C)C)C(C(=O)NC(C)(C)C)C34C=CC2(C)O4)no1 (configuration not stated) | inactive: 111% |
| N#Cc1cc2cc3c(cc2nc1SCc1cccnc1)OCCO3 | inactive: 106% |
| Cc1ccc(-c2nn(-c3ccccc3)c3[nH]c(=O)c(CNCCN4CCOCC4)cc23)cc1 | inactive: 111% |
| CCNc1nc(NC(C)C)nc(C(=O)O)n1 | inactive: 119% |
| O=C1c2ccccc2C(=O)N1CSC1=NCCS1 | inactive: 111% |
| CCOC(=O)c1ccc(NS(=O)(=O)c2ccc3[nH]c4c(c3c2)CCCCC4)cc1 | inactive: 89% |
| Cc1cccc(NC(=O)Cn2c(=O)oc3cc(S(=O)(=O)NC4CCCC4)ccc32)c1 | inactive: 98% |
| CC(=O)N1CCc2cc(S(=O)(=O)NC(Cc3ccccc3)C(=O)Nc3ccc(Cl)cc3)ccc21 (configuration not stated) | inactive: 89% |
| CCOc1ccc2[nH]c(=O)c(CN(Cc3ccccc3)C(=O)N3CCOCC3)cc2c1 | inactive: 105% |
| Cc1cc(C)c(OCC(=O)N(Cc2cccc(F)c2)Cc2ccco2)c(C)c1 | inactive: 104% |
